Test results reported in article PMC10618235.
These are yes or no findings as the source states them, for the method shown. Binding seen in cells or lysates may run through a third protein. Some entries that bind do so weakly or less than the wild type. For some of these results: Sequences can lack the tags named with a protein. Values belong to the molecule of their own block, whether it stands above or below them.

Sequences of proteins named here, by UniProt entry; tags and fusion partners are left off.
UniProt P20248: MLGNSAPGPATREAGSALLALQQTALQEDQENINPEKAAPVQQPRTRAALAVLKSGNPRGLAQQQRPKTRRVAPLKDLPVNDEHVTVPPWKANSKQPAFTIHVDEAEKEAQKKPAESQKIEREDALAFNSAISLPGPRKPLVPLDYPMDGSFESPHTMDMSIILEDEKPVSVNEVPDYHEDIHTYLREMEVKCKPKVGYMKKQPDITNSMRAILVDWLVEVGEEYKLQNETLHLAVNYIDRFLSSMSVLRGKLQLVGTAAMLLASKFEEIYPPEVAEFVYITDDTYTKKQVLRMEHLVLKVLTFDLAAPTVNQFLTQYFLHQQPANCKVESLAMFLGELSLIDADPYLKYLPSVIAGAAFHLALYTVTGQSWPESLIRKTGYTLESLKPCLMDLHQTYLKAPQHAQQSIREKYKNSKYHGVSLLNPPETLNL

What was measured:
[1] = biological target: T1, Flag-FBXL6 (F-Box and Leucine Rich Repeat Protein 6), wild type (UniProt Q8N531); test: co-IP; Huh7 and Hepa1-6 cells transfected with Flag-FBXL6 for 48 h, lysed; indicated antibodies and Protein A/G PLUS-Agarose added to the lysates
T1 sequence: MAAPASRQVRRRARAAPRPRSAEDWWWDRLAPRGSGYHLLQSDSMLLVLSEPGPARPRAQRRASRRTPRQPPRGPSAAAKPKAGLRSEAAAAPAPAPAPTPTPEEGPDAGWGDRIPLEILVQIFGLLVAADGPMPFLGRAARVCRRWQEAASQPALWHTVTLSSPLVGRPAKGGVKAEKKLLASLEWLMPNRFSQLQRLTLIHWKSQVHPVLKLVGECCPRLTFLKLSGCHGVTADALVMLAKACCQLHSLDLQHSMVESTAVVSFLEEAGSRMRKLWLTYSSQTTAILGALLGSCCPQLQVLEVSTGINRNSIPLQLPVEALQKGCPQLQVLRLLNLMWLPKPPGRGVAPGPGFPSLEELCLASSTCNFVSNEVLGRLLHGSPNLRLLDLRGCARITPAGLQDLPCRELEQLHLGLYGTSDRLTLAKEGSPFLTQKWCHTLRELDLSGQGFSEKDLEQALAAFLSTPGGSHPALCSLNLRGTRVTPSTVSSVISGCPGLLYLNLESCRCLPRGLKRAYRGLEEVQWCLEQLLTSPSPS

FBXL6(ΔLRR219-244) = biological target: T2, FBXL6(ΔLRR219-244) (UniProt Q8N531); test: co-IP; wild-type FBXL6 or LRR deletion mutants with TKT in cells (Supplementary Fig. 6d); cells and antibodies not shown
T2 sequence: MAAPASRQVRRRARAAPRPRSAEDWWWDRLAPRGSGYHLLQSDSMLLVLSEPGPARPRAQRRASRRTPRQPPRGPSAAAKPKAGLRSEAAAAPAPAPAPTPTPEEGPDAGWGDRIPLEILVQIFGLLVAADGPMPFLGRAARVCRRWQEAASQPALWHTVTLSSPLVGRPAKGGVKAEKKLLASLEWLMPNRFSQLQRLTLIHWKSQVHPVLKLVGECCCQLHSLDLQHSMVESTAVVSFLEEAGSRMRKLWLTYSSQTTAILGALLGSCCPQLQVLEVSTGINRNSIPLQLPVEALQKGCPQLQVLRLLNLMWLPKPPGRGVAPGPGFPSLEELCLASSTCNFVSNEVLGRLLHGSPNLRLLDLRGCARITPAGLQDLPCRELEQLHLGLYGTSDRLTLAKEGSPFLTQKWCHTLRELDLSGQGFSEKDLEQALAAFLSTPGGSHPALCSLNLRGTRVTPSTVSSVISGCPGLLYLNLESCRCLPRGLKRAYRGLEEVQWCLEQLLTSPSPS

FBXL6(ΔLRR383-408) = biological target: T3, FBXL6(ΔLRR383-408) (UniProt Q8N531); test: as above
T3 sequence: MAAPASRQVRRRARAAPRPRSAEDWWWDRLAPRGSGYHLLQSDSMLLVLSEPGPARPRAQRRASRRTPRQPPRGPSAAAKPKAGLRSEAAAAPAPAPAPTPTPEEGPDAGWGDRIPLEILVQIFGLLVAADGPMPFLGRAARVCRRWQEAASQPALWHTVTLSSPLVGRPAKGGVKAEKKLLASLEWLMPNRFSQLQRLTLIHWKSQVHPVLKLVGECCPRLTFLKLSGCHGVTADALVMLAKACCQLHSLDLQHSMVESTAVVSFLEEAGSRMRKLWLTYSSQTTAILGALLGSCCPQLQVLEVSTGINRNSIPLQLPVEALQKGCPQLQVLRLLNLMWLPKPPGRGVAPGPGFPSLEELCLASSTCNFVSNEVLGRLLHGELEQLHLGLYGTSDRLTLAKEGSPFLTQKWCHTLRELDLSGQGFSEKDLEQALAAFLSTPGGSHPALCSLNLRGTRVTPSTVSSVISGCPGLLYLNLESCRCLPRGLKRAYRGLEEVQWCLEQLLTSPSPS

[2] = biological target: T1, Flag-FBXL6 (F-Box and Leucine Rich Repeat Protein 6), wild type; test: as above
[3] = biological target: T1, Flag-FBXL6 (F-Box and Leucine Rich Repeat Protein 6), wild type; test: co-IP; Huh7 cells cotransfected with FBXL6 and TKT or TKT T287A for 48 h; pulldown with anti-Flag IgG
[4] = biological target: T1, Flag-FBXL6 (F-Box and Leucine Rich Repeat Protein 6), wild type; test: co-IP; Huh7 and Hepa1-6 cells transfected with Flag-FBXL6 for 48 h, lysed; indicated antibodies and Protein A/G PLUS-Agarose added to the lysates; remark: listed apart in the source

Molecule: CCNA2 (from UniProt P20248 1-432)
binding [1]: binds weakly

B1: TKT (transketolase) in the co-IP with the FBXL6 LRR deletion mutants (Supplementary Fig. 6d) (protein, UniProt P29401 1-623)
chain: MESYHKPDQQKLQALKDTANRLRISSIQATTAAGSGHPTSCCSAAEIMAVLFFHTMRYKSQDPRNPHNDRFVLSKGHAAPILYAVWAEAGFLAEAELLNLRKISSDLDGHPVPKQAFTDVATGSLGQGLGAACGMAYTGKYFDKASYRVYCLLGDGELSEGSVWEAMAFASIYKLDNLVAILDINRLGQSDPAPLQHQMDIYQKRCEAFGWHAIIVDGHSVEELCKAFGQAKHQPTAIIAKTFKGRGITGVEDKESWHGKPLPKNMAEQIIQEIYSQIQSKKKILATPPQEDAPSVDIANIRMPSLPSYKVGDKIATRKAYGQALAKLGHASDRIIALDGDTKNSTFSEIFKKEHPDRFIECYIAEQNMVSIAVGCATRNRTVPFCSTFAAFFTRAFDQIRMAAISESNINLCGSHCGVSIGEDGPSQMALEDLAMFRSVPTSTVFYPSDGVATEKAVELAANTKGICFIRTSRPENAIIYNNNEDFQVGQAKVVLKSKDDQVTVIGAGVTLHEALAAAELLKKEKINIRVLDPFTIKPLDRKLILDSARATKGRILTVEDHYYEGGIGEAVSSAVVGEPGITVTHLAVNRVPRSGKPAELLKMFGIDRDAIAQAVRGLITKA
binding (FBXL6(ΔLRR219-244)): binds | binding (FBXL6(ΔLRR383-408)): binds | binding [2]: binds

B4: TKT T287A mutant, transfected into Huh7 cells (protein, UniProt P29401 1-623)
chain: MESYHKPDQQKLQALKDTANRLRISSIQATTAAGSGHPTSCCSAAEIMAVLFFHTMRYKSQDPRNPHNDRFVLSKGHAAPILYAVWAEAGFLAEAELLNLRKISSDLDGHPVPKQAFTDVATGSLGQGLGAACGMAYTGKYFDKASYRVYCLLGDGELSEGSVWEAMAFASIYKLDNLVAILDINRLGQSDPAPLQHQMDIYQKRCEAFGWHAIIVDGHSVEELCKAFGQAKHQPTAIIAKTFKGRGITGVEDKESWHGKPLPKNMAEQIIQEIYSQIQSKKKILAAPPQEDAPSVDIANIRMPSLPSYKVGDKIATRKAYGQALAKLGHASDRIIALDGDTKNSTFSEIFKKEHPDRFIECYIAEQNMVSIAVGCATRNRTVPFCSTFAAFFTRAFDQIRMAAISESNINLCGSHCGVSIGEDGPSQMALEDLAMFRSVPTSTVFYPSDGVATEKAVELAANTKGICFIRTSRPENAIIYNNNEDFQVGQAKVVLKSKDDQVTVIGAGVTLHEALAAAELLKKEKINIRVLDPFTIKPLDRKLILDSARATKGRILTVEDHYYEGGIGEAVSSAVVGEPGITVTHLAVNRVPRSGKPAELLKMFGIDRDAIAQAVRGLITKA
binding [3]: no binding

The next lines start with the values.

binding [3]: binds
B2: wild-type TKT (transketolase), transfected into Huh7 cells (protein, UniProt P29401 1-623)
chain: MESYHKPDQQKLQALKDTANRLRISSIQATTAAGSGHPTSCCSAAEIMAVLFFHTMRYKSQDPRNPHNDRFVLSKGHAAPILYAVWAEAGFLAEAELLNLRKISSDLDGHPVPKQAFTDVATGSLGQGLGAACGMAYTGKYFDKASYRVYCLLGDGELSEGSVWEAMAFASIYKLDNLVAILDINRLGQSDPAPLQHQMDIYQKRCEAFGWHAIIVDGHSVEELCKAFGQAKHQPTAIIAKTFKGRGITGVEDKESWHGKPLPKNMAEQIIQEIYSQIQSKKKILATPPQEDAPSVDIANIRMPSLPSYKVGDKIATRKAYGQALAKLGHASDRIIALDGDTKNSTFSEIFKKEHPDRFIECYIAEQNMVSIAVGCATRNRTVPFCSTFAAFFTRAFDQIRMAAISESNINLCGSHCGVSIGEDGPSQMALEDLAMFRSVPTSTVFYPSDGVATEKAVELAANTKGICFIRTSRPENAIIYNNNEDFQVGQAKVVLKSKDDQVTVIGAGVTLHEALAAAELLKKEKINIRVLDPFTIKPLDRKLILDSARATKGRILTVEDHYYEGGIGEAVSSAVVGEPGITVTHLAVNRVPRSGKPAELLKMFGIDRDAIAQAVRGLITKA

binding [4]: binds
B3: endogenous TKT (transketolase) of human Huh7 cells (protein, UniProt P29401 1-623)
chain: MESYHKPDQQKLQALKDTANRLRISSIQATTAAGSGHPTSCCSAAEIMAVLFFHTMRYKSQDPRNPHNDRFVLSKGHAAPILYAVWAEAGFLAEAELLNLRKISSDLDGHPVPKQAFTDVATGSLGQGLGAACGMAYTGKYFDKASYRVYCLLGDGELSEGSVWEAMAFASIYKLDNLVAILDINRLGQSDPAPLQHQMDIYQKRCEAFGWHAIIVDGHSVEELCKAFGQAKHQPTAIIAKTFKGRGITGVEDKESWHGKPLPKNMAEQIIQEIYSQIQSKKKILATPPQEDAPSVDIANIRMPSLPSYKVGDKIATRKAYGQALAKLGHASDRIIALDGDTKNSTFSEIFKKEHPDRFIECYIAEQNMVSIAVGCATRNRTVPFCSTFAAFFTRAFDQIRMAAISESNINLCGSHCGVSIGEDGPSQMALEDLAMFRSVPTSTVFYPSDGVATEKAVELAANTKGICFIRTSRPENAIIYNNNEDFQVGQAKVVLKSKDDQVTVIGAGVTLHEALAAAELLKKEKINIRVLDPFTIKPLDRKLILDSARATKGRILTVEDHYYEGGIGEAVSSAVVGEPGITVTHLAVNRVPRSGKPAELLKMFGIDRDAIAQAVRGLITKA
